The source of these data is ChEMBL document CHEMBL4888484, “Replenishing the malaria drug discovery pipeline: Screening and hit evaluation of the MMV Hit Generation Library 1 (HGL1) against asexual blood stage Plasmodium falciparum ,using a nano luciferase reporter read-out” (2022).

What is called % Inhibition is the change of the read-out against control, counted positive when it falls.

Out of some 150,000 compounds screened, about 540 (0.36%) showed an effect of 50% or more. The list shows a part of the results.

The experiment relates to Plasmodium falciparum. Put plainly: Primary screen in NF54 nanoGlo assay, in single point, at 2uM, 72h; a lower Z score goes with more inhibition. The format is functional, Erythrocyte. The following applies: timepoint 72 hour.
Turning to `Cn1cc([C@H]2CCCN(C(=O)c3ccc4ncsc4c3)C2)cn1`, the “% Inhibition” value is 5% and the Z score is on record as -0.68.
Take `CCOCc1nc(C)cc(NCC2(O)CCC(C)(C)CC2)n1`: the “% Inhibition” value is -2% and the Z score turned out to be 0.19.
As for `Cc1cc(C(=O)N(CCO)Cc2ccc(C)s2)cc(C)n1`, the “% Inhibition” value was -14% and the Z score stood at 2.21.
Taken in the same sequence, the figures for `CCC(c1ccccc1)c1nc(C2CC(=O)N(c3ccccc3)C2)no1` (stereo not given) were 4% and -0.43.
Taken in the same sequence, the figures for `Cc1ccc(CNC(=O)c2nnc(CS(=O)(=O)c3ccccc3)o2)cc1` were 16% and -2.44.
Turning to `CCN(Cc1nc(-c2ccco2)no1)[C@H]1CCS(=O)(=O)C1`, the “% Inhibition” value is -11% and the Z score turned out to be 2.08.
Taken in the same sequence, the figures for `Cc1nc(-c2cccnc2)nc(NCCNC(=O)C(C)(C)C)c1C` were 31% and -0.47.
Taken in the same sequence, the figures for `COCC1(CNC(=O)CN2C[C@@H]3CC[C@H]2C3)CCC1` were -6% and 1.08.
Consider `CN(CCC(=O)Nc1c(Cl)cccc1Cl)Cc1ccsc1`, for which the “% Inhibition” value was determined as 7% and the Z score is given as -1.07.
Taken in the same sequence, the figures for `CCNC(=O)CN(CC)CC(=O)Nc1cccc(CC)c1` were -3% and 0.39.
Turning to `Cc1cc(F)cc(NC(=O)N2CCCN(C(=O)C(F)(F)F)CC2)c1`, the “% Inhibition” value is listed as -11% and the Z score was found to be 1.45.
For `CCOC(=O)c1cc(NC(=O)C(c2ccccc2)c2ccccc2)ccc1N1CCOCC1`, the “% Inhibition” value was -7% and the Z score came out at 0.81.
Taken in the same sequence, the figures for `CN(C(=O)c1ccc(S(=O)(=O)N2CCOCC2)cc1)c1ncccn1` were -5% and 0.73.
In the case of `CC(C)(C)c1csc(CNC2(CCO)CCOCC2)n1`, the “% Inhibition” value was -2% and the Z score is on record as 0.2.
Taken in the same sequence, the figures for `CCOc1cnc(-c2ccc(OC)cc2)[nH]1` were -28% and 3.31.
Taken in the same sequence, the figures for `CC(C)c1cc(C(=O)N(C)C2C3CCOC3C2(C)C)cc(O)n1` (stereo not given) were 27% and -3.08.
Taken in the same sequence, the figures for `O=C(CN1CCN(c2ccc(F)cc2)C1=O)NCc1cccs1` were -1% and 0.15.
Take `COc1cc(OC)c(NC(=O)N2CCCCO2)cc1Br`: the “% Inhibition” value is recorded as -4% and the Z score turned out to be 0.47.
Taken in the same sequence, the figures for `Cc1cccc(OCC(=O)c2ccc3c(c2)N(C(C)C(=O)NCC2CCCO2)C(=O)CO3)c1C` (stereo not given) were -8% and 1.55.
Taken in the same sequence, the figures for `CC(=O)c1ccc(N2CC[C@H](c3ccccc3Cl)C2)nc1` were 2% and -0.26.
Taken in the same sequence, the figures for `CC(C)S(=O)(=O)[C@@H](C)C(=O)NCc1ccco1` were -16% and 2.11.
With `Cc1cccc(NC(=O)NC(=O)COC(=O)C[C@H](C)c2c(C)n[nH]c2C)c1C`, the “% Inhibition” value is listed as 7% and the Z score is reported as -1.1.
Taken in the same sequence, the figures for `Nc1ccc(Br)c2c1CCCC2` were -2% and 0.34.
Taken in the same sequence, the figures for `Cn1nnc(COc2nc(C(C)(C)C)no2)n1` were -8% and 1.29.
Taken in the same sequence, the figures for `CO[C@H]1CN(C)C[C@@H]1Nc1nc(N)nc(C)c1Cl` were -9% and 1.15.
With `CCn1nccc1-c1nc(C2CCN(C(=O)c3ccoc3)CC2)no1`, the “% Inhibition” value is -20% and the Z score is reported as 3.84.
Taken in the same sequence, the figures for `N#Cc1ccnc(N2CCC(C(=O)O)(n3cnc4ccccc43)CC2)c1` were -1% and 0.19.
Taken in the same sequence, the figures for `CC(C)[C@H](Cn1ccnc1)NC(=O)c1cnnn1-c1ccccc1` were -4% and 0.64.
Taken in the same sequence, the figures for `COCc1ccc(CN[C@H](C)C(=O)OC)cc1` were -3% and 0.38.
Consider `Cn1nc(C(F)(F)F)cc1CN1CC(=O)NCC1(C)C`, for which the “% Inhibition” value is -7% and the Z score stood at 1.4.
Taken in the same sequence, the figures for `CC(C)c1nccn1CC1CCN(C(=O)CN2C(=O)CCC2=O)CC1` were -5% and 0.67.
As to `O=C(CCc1ccccc1)N1CCCCCCC1`, the “% Inhibition” value is listed as -13% and the Z score is given as 1.85.
Taken in the same sequence, the figures for `O=C(CCNC(=O)OCC(F)(F)F)Nc1cc(Cl)cc(Cl)c1` were 10% and -1.29.
Regarding `COc1cc(=O)n2c(c1C(=O)NCc1ccc(C(F)(F)F)cc1)CCCCC2`, the “% Inhibition” value is reported as -13% and the Z score came out at 1.5.
In the case of `CC(C)c1nccn1-c1ccncc1Cl`, the “% Inhibition” value is reported as -4% and the Z score stood at 0.4.
Taken in the same sequence, the figures for `O=C(CC1(N2Cc3ccccc3C2=O)CCCCC1)NCCc1ccc(F)cc1` were 7% and -1.
In the case of `NC(=O)C1CCN(C(=O)OCC(F)(F)F)CC1`, the “% Inhibition” value worked out at 6% and the Z score is recorded as -0.86.
For the molecule `Cc1cnc(C2CN(S(=O)(=O)c3ccc4c(c3)CCC4)C2)n1CC1CC1`, the “% Inhibition” value is recorded as -14% and the Z score was found to be 1.81.
Taken in the same sequence, the figures for `Cc1ccc(-n2cc(NC(=O)NCCc3cscn3)cn2)c(C)c1` were 5% and -0.96.
Taken in the same sequence, the figures for `Cc1nscc1C(=O)Nc1ccc(Br)c(C)c1F` were -7% and 1.31.
Taken in the same sequence, the figures for `CN(C)c1ccc(N2CCC(C(=O)N3CCN(c4cccc(Cl)c4)CC3)CC2)nn1` were -18% and 3.29.
In the case of `Cc1ccc2c(c1)[C@H](Cc1nc3ccccc3c(=O)n1-c1ccccc1)C(=O)N2C`, the “% Inhibition” value came out at 5% and the Z score is given as -0.6.
Taken in the same sequence, the figures for `CN(CC(F)(F)F)C(=O)CN1C(=O)c2ccccc2C(C)(C)C1=O` were 2% and -0.16.
Consider `Cn1c(C(=O)NCCc2c[nH]c3ccccc23)cc2c(-c3cccs3)nn(-c3ccccc3)c21`, for which the “% Inhibition” value is listed as -7% and the Z score is given as 1.04.
Taken in the same sequence, the figures for `Cn1nc(-c2ccncc2)nc1-c1cscn1` were 1% and -0.19.
As for `Cc1nc(-c2ccncc2)nn1[C@H]1CCCC[C@@H]1O`, the “% Inhibition” value is listed as -8% and the Z score stood at 1.53.
For `N#Cc1ccccc1-c1ccc(CN2CCC(CN3CCOCC3)CC2)o1`, the “% Inhibition” value was -6% and the Z score was determined as 0.75.
Taken in the same sequence, the figures for `Cc1cccnc1C(=O)N1CCC(Oc2ccc3ncccc3c2)(C(=O)O)CC1` were -4% and 0.77.
With `CCCc1nc(CN[C@H](c2ccccc2)C2(CO)CCOCC2)no1`, the “% Inhibition” value is given as -6% and the Z score is 0.57.
In the case of `CC(C)C(=O)N1CCN(c2ccc(NC(=O)c3ccc(F)cc3F)cn2)CC1`, the “% Inhibition” value was -12% and the Z score is reported as 1.07.
Taken in the same sequence, the figures for `O=C(NCCc1cccnc1)c1cc(-c2cccc(Cl)c2)[nH]n1` were 29% and -3.29.
With `CCOc1ccc(-c2cc3c(N4CCC(C(=O)NCc5ccc(OC)c(OC)c5)CC4)nccn3n2)cc1`, the “% Inhibition” value was 8% and the Z score is listed as -0.79.
Taken in the same sequence, the figures for `Cc1oc(C(=O)N2CCCCC2C2CCCN2C(=O)OC(C)(C)C)cc1S(=O)(=O)N1CCCC1` (stereo not given) were -1% and 0.08.
Turning to `Cc1nc2c([nH]1)CN(C(=O)NCCc1nc3c(s1)CCC3)CC2`, the “% Inhibition” value is listed as -11% and the Z score was 1.2.
As for `CCC1C(CO)CCN1C(=O)[C@@H]1C[C@H](C)CC(=O)N1` (stereo not given in full), the “% Inhibition” value is on record as -3% and the Z score turned out to be 0.52.
